Measurements reported in paper PMC10201506 (Signal Transduction and Targeted Therapy, 2023).

Biological target: SARS-CoV-2 3CL^pro (Severe acute respiratory syndrome coronavirus 2, UniProt P0DTC1)
Experiment: Rapid dilution assay (inhibition reversibility)
Assay type: biochemical
Settings: 10 μM compound incubated with 2 μM enzyme for 20 min

O=C(c1cc(=O)[nH]c2ccccc12)N1CCN(c2ccc(Cl)c(Cl)c2)CC1CN1CCOCC1 (stereo not shown) [JZD-07, 4-(4-(3,4-Dichlorophenyl)-2-(morpholinomethyl)piperazine-1-carbonyl)quinolin-2(1H)-one]
recovery of 3CLpro activity after 100-fold dilution: more than 70%
